{"source": "paper PMC12136788", "binders": {"B1": {"name": "chr11:87793471:87793472:-_ENSMUSG00000020483_ENSMUST00000020775|mus_mus|mus_mus_mus_hu_False|78_78 (ssRNA)", "RNA": "GGGAGUUCUACAGUCCGACGAUCUGGACUUGAAAAUAAAAGAAUAAGCUGGAUCCCCCCACCCCUUACAUUGUCAACCCUACACGAGAGUUUUGAAGGCGACUCAUGAAAAUCAGCAGCUCAAACGGCAAUGACCACCCCACCCAACAGAGGAUUGAGCAUCA"}, "B2": {"name": "chr2:9724813:9724814:-_ENSG00000134308_ENST00000238081|hu_mus|FALSE|FALSE (ssRNA)", "RNA": "GGGAGUUCUACAGUCCGACGAUCAAUUUUUAUUGGGAAGGAAGUUGUCAACUUAAACAGCAGCAAAUGAAGAAUGCAUAAGGAAACUCCCUGUUGUCACAGAAAGAUGUAACCUCCAGAAUAUGUGACACAGGAGACAUUUCGCAACAGAGGAUUGAGCAUCA"}, "B3": {"name": "chr9:75414013:75414014:-_ENSMUSG00000032186_ENSMUST00000064433|mus_mus|FALSE|FALSE (ssRNA)", "RNA": "GGGAGUUCUACAGUCCGACGAUCACUGGUAAGCCAUUAUGACCAGUGGCAUGCAAGAAUUUUACAUGUUUAUGUGCAAUGAAAAAUGUUGCUUGUUUUCUGAAAAAACAUGAAACACGAUUAAGAUAAAGGCUUACUUAAAAUCAACAGAGGAUUGAGCAUCA"}, "B4": {"name": "chr2:181324804:181324805:-_ENSMUSG00000000823_ENSMUST00000128553|mus_mus|motif|central (ssRNA)", "RNA": "GGGAGUUCUACAGUCCGACGAUCGCCCCUUACCCCUUGGCACCGCUGAUAGUGGUACUUGAGCCCAUAGAUGCUGGGGAACUCGGGCCAGCACCCUGAGUUUGGACACUUCACCCUUGAGUGUGCCUUGAAUUCAUCUUUCCACAACAGAGGAUUGAGCAUCA"}, "B5": {"name": "chrX:51640900:51640901:+_ENSG00000179222_ENST00000326587|hu_mus|FALSE|FALSE (ssRNA)", "RNA": "GGGAGUUCUACAGUCCGACGAUCAGGGGUACUGAUGAGAAUAUACAGAUGCUCUUCUUUGUCGAUUUCCUUCAGCUGGAUUCCAAAUUUCUUCUCCAGGACAAAGCAUGCGCGCUCAAUGAUUUCUGGAUAGACAUCAGUGUACAACAGAGGAUUGAGCAUCA"}, "B6": {"name": "chr1:66463027:66463028:+_ENSMUSG00000015222_ENSMUST00000114013|mus_mus|mus_mus_mus_hu_True|28_38 (ssRNA)", "RNA": "GGGAGUUCUACAGUCCGACGAUCUUUUCUUUCAGGAGUGGAAAUUCUGCCUCUCCCGGUUUUAAAAGGCUUUUCUUUUCUAUGUUUCUCAAGAGAUGGUCUCCGAGCAUCCUUCUCAGCUUUCUCCUCUUUAGGAAUAGUUUCCAACAGAGGAUUGAGCAUCA"}, "B7": {"name": "chr11:86503612:86503613:+_ENSMUSG00000072582_ENSMUST00000108022|mus_hu|motif|central (ssRNA)", "RNA": "GGGAGUUCUACAGUCCGACGAUCCUGACAGGCUUCAAACACUUGUGAUGGAGGGGUUGUUGUCAUAUCAAAGUCCACCGGGUAAAGUUUUAGGUGACCAGUGACUUUGUCAAUUAGGUCUGCUGGUCCUGGCCCAAUCCCUAGCAACAGAGGAUUGAGCAUCA"}, "B8": {"name": "100766528_100781209_1805_CDS_ENSMUSG00000037286_ENSMUST00000129269|mouse|control|control (ssRNA)", "RNA": "GGGAGUUCUACAGUCCGACGAUCUGCAUGUUCAUGUAACUCACUUUCCAGAAAGAAAAGAACAAGCAUCCUAAUGAGGUUCCCGUUUGGACUGUUCCUUCCUCUCCUCUUCGCUAACGCUUCCUCUGCUUGUGGGUCAUGUCUCAACAGAGGAUUGAGCAUCA"}, "B9": {"name": "56101340_56103250_1555_CDS_ENSG00000126777_ENST00000438792|human|control|control (ssRNA)", "RNA": "GGGAGUUCUACAGUCCGACGAUCCUGUGCUGCCUCAUGUUCCGCUGUUCUCUUCCUGAUGUAGCUCUGAACUUCUUCCCACCUUCUCUCAGCUUCUUGUAGUUGAACCUUCAACUGAGUAGCUGCUUGCUCAGCAUUCUUCUUCAACAGAGGAUUGAGCAUCA"}, "B10": {"name": "138255700_138258323_1902_CDS_ENSG00000122779_ENST00000415680|human|control|control (ssRNA)", "RNA": "GGGAGUUCUACAGUCCGACGAUCUGGCUGGCCAUGAUCUAUAUUAGUAUCUUUCCUCACAAUAUUGUCCAGCAUAAUAGUACUUGAACAGUCAAUAUCCGGAAGAGAGGGAAGAUUAUAAGACCCUCCCACUGGUGAGCUCAACAACAGAGGAUUGAGCAUCA"}, "B11": {"name": "chr2:44436386:44436387:+_ENSG00000138032_ENST00000378551|hu_hu|FALSE|FALSE (ssRNA)", "RNA": "GGGAGUUCUACAGUCCGACGAUCCUCUGAAUCUUUUUUCACCGCUUCAUCUGAGACCUUGGGAGCAUUUGAAAAGCAAACUAGUACAAUACUCAUGUUAUCUCGACUUCCCUUGUGUAAACAAGUGUCCACUACCCAAUUGCACAACAGAGGAUUGAGCAUCA"}, "B12": {"name": "chr1:60041781:60041782:+_ENSMUSG00000041040_ENSMUST00000036540|mus_hu|mus_mus_mus_hu_False|8_68 (ssRNA)", "RNA": "GGGAGUUCUACAGUCCGACGAUCAAGUUUACAAUAGUAAAGUAAAUGCAGUAGUGGCAAAUUUUCUUUACUUUAGUUUCACAAAAGAAAAUCUUUAUAACCCAGUCCUAGUCUUGGACAUAGUGAAUCUCCAUGGGUCUGACUCAACAGAGGAUUGAGCAUCA"}, "B13": {"name": "chr7:140404665:140404666:+_ENSG00000090266_ENST00000247866|hu_hu|hu_hu_hu_mus_False|78_78 (ssRNA)", "RNA": "GGGAGUUCUACAGUCCGACGAUCUGCUCCUACUCGUCCAGAGAGUUUACAGUGUCAGUCUUCAUCAUCAGGAGGGAUUCCCAGUUCUUCAUCUGUCCACUGUGAAGGAUCUGGAUAUGAAAAGUGACCCAGCACAGCAUCCGACAACAGAGGAUUGAGCAUCA"}, "B14": {"name": "26878044_26878164_133_3pUTR_ENSG00000100099_ENST00000336873|human|control|control (ssRNA)", "RNA": "GGGAGUUCUACAGUCCGACGAUCCAGAACCACCUCUUCAAGCUCCUCUCCAGGAAAGCCAAAAGUGGGAGAUGCAUGCUAGAGCUGGUGUUCUAAAGAAAUUUCUAGCUUGUCUAGUUCAAACCCAUCCUGAAGACUCUUAUUCAACAGAGGAUUGAGCAUCA"}, "B15": {"name": "chr4:12084866:12084867:-_ENSMUSG00000028218_ENSMUST00000108285|mus_hu|motif|central (ssRNA)", "RNA": "GGGAGUUCUACAGUCCGACGAUCUAAAUCUUCAUCUUCAUCAAUGUUUUGUAUAUUCUGGUAGGCAGCAGUGUAGACCUCGGAAGCUUUGCCGUGAAAUAACAUUUCGAUUGUGAUAAAUUCAGAAAAUAUAGUCUUUAUAUCCAACAGAGGAUUGAGCAUCA"}, "B16": {"name": "chr8:42711381:42711382:-_ENSG00000120925_ENST00000527424|hu_mus|motif|central (ssRNA)", "RNA": "GGGAGUUCUACAGUCCGACGAUCCACUUCUCGAUACAUAAUGGAGAUGUAAAUAAGCAACAAAAAGAUAACAAAGAAAUCAUCGGGAAAGCCCAGAAUUCCAAACAAGGCUUCAGGUACAAAAUCUAGAGGUGAUAUUAAAUACAACAGAGGAUUGAGCAUCA"}, "B17": {"name": "chr13:113737515:113737516:+_ENSMUSG00000042426_ENSMUST00000038574|mus_mus|FALSE|FALSE (ssRNA)", "RNA": "GGGAGUUCUACAGUCCGACGAUCAGAAUUCCUUCCUCCAGGGCCACUCUCACAGCCCAGCUCCUCGCACACCCUGGUGGCUAAGCUCACCGCCGAGAUUCUUCGGGGCUGGGUGCAGACUAUGUUACACUUCCUGGCUCCACACAACAGAGGAUUGAGCAUCA"}, "B18": {"name": "chr7:44244176:44244177:+_ENSG00000106636_ENST00000223369|hu_mus|hu_hu_hu_mus_False|18_48 (ssRNA)", "RNA": "GGGAGUUCUACAGUCCGACGAUCACUGUCGCUCCGGACGUAGACAUGGCAAAGAUACUCUUGUUCUUUGACAGAAGCUCUGCUGCCUUUCGAUGAGCGUUCCACAAUCAGUUGACUCGUGAAGGUCAUGAAUUCCUGCACACUCAACAGAGGAUUGAGCAUCA"}, "B19": {"name": "chr4:140556289:140556290:+_ENSMUSG00000036622_ENSMUST00000037055|mus_mus|mus_mus_mus_hu_False|28_58 (ssRNA)", "RNA": "GGGAGUUCUACAGUCCGACGAUCGAUGGAGCUCACCAGGCCCCCUUUUGCCGUGCAGAACCCUGUGCGGGUCACCACUGCUAGCACGUGCGGUCCCACAUAGGCCCGGGCCUGCAGGAUGAGGGUCCCGCAGAAGAGUGUGUGCAACAGAGGAUUGAGCAUCA"}, "B20": {"name": "128607413_128610288_2715_CDS_ENSG00000064419_ENST00000265388|human|control|control (ssRNA)", "RNA": "GGGAGUUCUACAGUCCGACGAUCUUUUAAGGAAUUUUCUAACCAUCGACAAAAAGUCGGUCUGUCAACCUGCAUGAUCUCCCAGAGCACUUCAGCCACAUCUGGUAGGGUAUAGGGGGGGAGGCAAAAGCAGCAGGUGUGCAGCAACAGAGGAUUGAGCAUCA"}, "B21": {"name": "chr8:93522421:93522422:+_ENSMUSG00000056608_ENSMUST00000048665|mus_mus|motif|central (ssRNA)", "RNA": "GGGAGUUCUACAGUCCGACGAUCAGAUUGGAUCAUUGCUUGCAGAUGAAAAUCAGAGGCAGAUGGAUUGUAUGUAUCUCGGAAUUCUCCAAGUAUUUUCUCCUCAGCACCUUUGAUAAGAUACGGAUGAUUGCAGCAUUUCCUCAACAGAGGAUUGAGCAUCA"}, "B22": {"name": "chr8:3496845:3496846:+_ENSMUSG00000047264_ENSMUST00000061508|mus_mus|FALSE|FALSE (ssRNA)", "RNA": "GGGAGUUCUACAGUCCGACGAUCAACAAGAUCGGGACUAGAGAUAGAUCCUGAGUGGGUCUGAAGGAUGGGAUUUUGGAGUGAACCCAGUACAGAAGUAGGGGCAGAACUUCGGGCAGAGCUGGCUCCAGAACUGAGGCCCAGCAACAGAGGAUUGAGCAUCA"}}, "note": "The other results are listed elsewhere or left out.", "data": [{"target": "T1, UNK ZnF1-3 (human, UniProt Q9C0B0 31-174)", "T1 sequence": "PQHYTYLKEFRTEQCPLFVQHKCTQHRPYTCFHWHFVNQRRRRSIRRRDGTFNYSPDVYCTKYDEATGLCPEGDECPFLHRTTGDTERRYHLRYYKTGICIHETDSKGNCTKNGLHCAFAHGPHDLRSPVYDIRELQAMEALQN", "test": "nsRBNS (natural sequence RNA bind-n-seq); RBNS binding buffer (assumed for nsRBNS): 25 mM Tris pH 7.5, 150 mM KCl, 3 mM MgCl2, 0.01% Triton X-100, 500 ug/ml BSA, 20 U/ml SUPERase-In, 4 C; UNK is unkempt and MSI1 is Musashi-1; names of the RNAs are library labels; protein concentration not given here; high values mean tight binding", "units": {"binding signal": "enrichment R"}, "values": [{"binder": "B1", "binding signal": 1.89}, {"binder": "B2", "binding signal": 1.53}, {"binder": "B3", "binding signal": 0.566}, {"binder": "B4", "binding signal": 0.671}, {"binder": "B5", "binding signal": 0.933}, {"binder": "B6", "binding signal": 0.48}, {"binder": "B7", "binding signal": 0.62}, {"binder": "B8", "binding signal": 0.549}, {"binder": "B9", "binding signal": 0.344}, {"binder": "B10", "binding signal": 1.14}, {"binder": "B11", "binding signal": 0.972}, {"binder": "B12", "binding signal": 0.685}, {"binder": "B13", "binding signal": 1.44}, {"binder": "B14", "binding signal": 1.04}, {"binder": "B15", "binding signal": 1.21}, {"binder": "B16", "binding signal": 2.42}, {"binder": "B17", "binding signal": 0.634}, {"binder": "B18", "binding signal": 0.571}, {"binder": "B19", "binding signal": 1.01}, {"binder": "B20", "binding signal": 1.12}, {"binder": "B21", "binding signal": 1.16}, {"binder": "B22", "binding signal": 1.41}]}]}
